Measured values published in patent US10322110B2, “Imidazole-based antimicrobial agents” (priority 2014, dated 2019).

Columns and labels:
Assay type in all cases: cell-based
[1] = system: Human keratinocytes (HaCaT cells); assay: human cytotoxicity assay in vitro (CellTiter-Glo), keratinocytes; set-up: key: 4: compounds inhibiting cell viability 50% or more at concentrations of 5 μM or less; 3: compounds causing more than 50% inhibition of cell viability at 10 μM; compounds causing >50% inhibition of cell viability at 25 μM; 1: compounds causing less than 50% inhibition of cell viability at 50 μM; compounds not causing loss of cell viability at concentrations of 50 μM or higher; details: cytotoxicity class
[2] = system: Human hepatocytes (HepaRG cells); assay: human cytotoxicity assay in vitro (CellTiter-Glo), hepatocytes; details: cytotoxicity class
[3] = system: Streptococcus pneumoniae (Chester, ATCC49619); assay: broth microdilution MIC assay, Streptococcus pneumoniae; details: MIC100 class score, 24 h

| Compound | cytotoxicity cell line K (keratinocytes) [1] | cytotoxicity cell line H (hepatocytes) [2] | Antibacterial activity Streptococcus pneumoniae [3] |
| --- | --- | --- | --- |
| Cc1nc(-c2ccc(-c3ccc(Cl)cc3Cl)o2)[nH]c1-c1ccccc1 [Compound 1] | 2 | – | – |
| Cc1[nH]c(-c2ccc(-c3cccc(Cl)c3Cl)o2)nc1-c1ccccc1 [Compound 2] | 1 | – | – |
| Cc1[nH]c(-c2ccc(-c3ccccc3Cl)o2)nc1-c1ccccc1 [Compound 3] | 1 | – | – |
| Cc1nc(-c2ccc(-c3cccc(Cl)c3)o2)[nH]c1-c1ccccc1 [Compound 4] | 2 | – | – |
| Cc1[nH]c(-c2ccc(-c3ccc(Cl)cc3)s2)nc1-c1ccccc1 [Compound 6] | 0 (compounds not causing loss of cell viability at concentrations of 50 μM or higher) | 0 (compounds without signs of cell viability loss at concentrations of 50 μM or higher) | – |
| Cc1[nH]c(-c2ccc(-c3ccc(F)cc3)s2)nc1-c1ccccc1 [Compound 7] | 2 | 1 (compounds not causing a loss of viability at concentrations between 25 and 50 μM) | – |
| Cc1[nH]c(-c2cc(C)n(-c3ccc(F)c(F)c3F)c2C)nc1-c1ccccc1 [Compound 10] | 2 | – | – |
| Cc1[nH]c(-c2csc(-c3ccc(F)cc3)n2)nc1-c1ccccc1 [Compound 11] | 2 | 1 (compounds not causing a loss of viability at concentrations between 25 and 50 μM) | – |
| Cc1[nH]c(-c2ccc(-c3cccc(Cl)c3)s2)nc1-c1ccccc1 [Compound 12] | 2 | 1 (compounds not causing a loss of viability at concentrations between 25 and 50 μM) | – |
| Cc1[nH]c(-c2ccc(-c3cccc(Br)c3)s2)nc1-c1ccccc1 [Compound 13] | 1 | 1 (compounds not causing a loss of viability at concentrations between 25 and 50 μM) | – |
| Cc1[nH]c(-c2csc(-c3cccc(Br)c3)n2)nc1-c1ccccc1 [Compound 14] | 1 | 1 (compounds not causing a loss of viability at concentrations between 25 and 50 μM) | – |
| Cc1nc(-c2ccc(-c3ccccc3OC(F)(F)F)o2)[nH]c1-c1cccc(Cl)c1 [Compound 21] | 2 | – | 4 (MIC of 1 μg/ml or less for preventing streptococcal growth 100% (MIC100)) |
| Cc1[nH]c(-c2ccc(-c3ccccc3C(F)(F)F)o2)nc1-c1cccc(Cl)c1 [Compound 22] | 2 | – | – |
| Cc1[nH]c(-c2ccc(-c3ccccc3OC(F)(F)F)o2)nc1-c1ccc(Cl)cc1 [Compound 24] | 2 | – | 4 (MIC of 1 μg/ml or less for preventing streptococcal growth 100% (MIC100)) |
| Cc1[nH]c(-c2ccc(-c3ccccc3C(F)(F)F)o2)nc1-c1ccc(Br)cc1 [Compound 25] | 0 (compounds not causing loss of cell viability at concentrations of 50 μM or higher) | 0 (compounds without signs of cell viability loss at concentrations of 50 μM or higher) | – |
| Cc1[nH]c(-c2ccc(-c3ccccc3OC(F)(F)F)o2)nc1-c1ccc(C(F)(F)F)cc1 [Compound 26] | 0 (compounds not causing loss of cell viability at concentrations of 50 μM or higher) | 1 (compounds not causing a loss of viability at concentrations between 25 and 50 μM) | – |
| Cc1[nH]c(-c2ccc(-c3ccccc3OC(F)(F)F)o2)nc1Cc1ccc(Br)cc1 [Compound 30, 4-(4-Bromo-benzyl)-5-methyl-2-[5-(2-trifluoromethoxy-phenyl)-furan-2-yl]-1H-imidazole] | 3 | – | 4 (MIC of 1 μg/ml or less for preventing streptococcal growth 100% (MIC100)) |
| COc1ccc(-c2ccc(-c3nc(C)c(-c4ccccc4)[nH]3)o2)c(C(F)(F)F)c1 [Compound 31] | 0 (compounds not causing loss of cell viability at concentrations of 50 μM or higher) | – | – |
| Cc1nc(-c2ccc(-c3cc(F)ccc3C(F)(F)F)o2)[nH]c1-c1ccccc1 [Compound 31a] | 1 | – | – |
| Cc1nc(-c2ccc(-c3cccc(OC(F)(F)F)c3)o2)[nH]c1-c1ccccc1 [Compound 34] | 2 | – | – |
| Cc1nc(-c2ccc(-c3cc(C(F)(F)F)cc(C(F)(F)F)c3)o2)[nH]c1-c1ccccc1 [Compound 35] | 1 | 1 (compounds not causing a loss of viability at concentrations between 25 and 50 μM) | – |
| Cc1[nH]c(-c2cc(C)n(-c3cccc(C(F)(F)F)c3)c2C)nc1-c1ccccc1 [Compound 36] | 2 | – | – |
| Cc1nc(-c2ccc(-c3cccc(OC(F)(F)F)c3)o2)[nH]c1-c1ccc(F)cc1 [Compound 37] | 2 | – | 4 (MIC of 1 μg/ml or less for preventing streptococcal growth 100% (MIC100)) |
| Cc1[nH]c(-c2ccc(-c3ccc(Cl)c(C(F)(F)F)c3)o2)nc1-c1ccccc1 [Compound 39] | 2 | 1 (compounds not causing a loss of viability at concentrations between 25 and 50 μM) | – |
| Cc1[nH]c(-c2ccc(-c3cc(C(F)(F)F)ccc3Cl)o2)nc1-c1ccccc1 [Compound 40] | 1 | – | – |

| Compound | cytotoxicity cell line K (keratinocytes) [1] | cytotoxicity cell line H (hepatocytes) [2] | Antibacterial activity Streptococcus pneumoniae [3] |
| --- | --- | --- | --- |
| Cc1nc(-c2ccc(-c3ccc(Cl)c(OC(F)(F)F)c3)o2)[nH]c1-c1ccc(F)cc1 [Compound 43] | – | – | 4 (MIC of 1 μg/ml or less for preventing streptococcal growth 100% (MIC100)) |
| Cc1[nH]c(-c2ccc(-c3ccc(OC(F)(F)F)cc3)o2)nc1-c1ccc(Cl)cc1 [Compound 48] | 1 | – | 4 (MIC of 1 μg/ml or less for preventing streptococcal growth 100% (MIC100)) |
| Cc1[nH]c(-c2ccc(-c3ccc(C(F)(F)F)c(Cl)c3)o2)nc1-c1ccc(F)cc1 [Compound 49] | 2 | – | – |
| Cc1ccc(-c2ccc(-c3nc(-c4ccccc4)c(C)[nH]3)o2)cc1 [Compound 52] | 2 | – | – |
| CCc1ccc(-c2ccc(-c3nc(-c4ccccc4)c(C)[nH]3)o2)cc1 [Compound 53] | 1 | – | – |
| Cc1ccc(-c2ncc(-c3nc(-c4ccccc4)c(C)[nH]3)s2)cc1 [Compound 55] | – | 1 (compounds not causing a loss of viability at concentrations between 25 and 50 μM) | – |
| Cc1[nH]c(-c2cc(C)n(-c3ccc(C(C)C)cc3)c2C)nc1-c1ccccc1 [Compound 58] | 2 | – | 4 (MIC of 1 μg/ml or less for preventing streptococcal growth 100% (MIC100)) |
| Cc1[nH]c(-c2cc(C)n(-c3ccc4c(c3)CCC4)c2C)nc1-c1ccccc1 [Compound 59] | 2 | – | – |
| Cc1ccccc1-c1ccc(-c2nc(-c3ccccc3)c(C)[nH]2)o1 [Compound 61] | 2 | – | – |
| Cc1cccc(C)c1-c1ccc(-c2nc(-c3ccccc3)c(C)[nH]2)o1 [Compound 62] | 2 | – | – |
| FC(F)(F)c1ccccc1-c1ccc(-c2nc(Cl)c(-c3ccccc3)[nH]2)o1 [Compound 65] | – | – | 4 (MIC of 1 μg/ml or less for preventing streptococcal growth 100% (MIC100)) |
| Cc1ccccc1-c1c[nH]c(-c2ccc(-c3ccccc3OC(F)(F)F)o2)n1 [Compound 66] | 1 | – | 4 (MIC of 1 μg/ml or less for preventing streptococcal growth 100% (MIC100)) |
| FC(F)(F)Oc1ccccc1-c1ccc(-c2nc(-c3ccccc3Cl)c[nH]2)o1 [Compound 67] | 2 | – | – |
| FC(F)(F)Oc1ccccc1-c1ccc(-c2nc(-c3ccc(Cl)cc3Cl)c[nH]2)o1 [Compound 68] | 2 | – | – |
| CN(C)Cc1[nH]c(-c2ccc(-c3ccccc3C(F)(F)F)o2)nc1-c1ccccc1 [Compound 70] | 2 | – | – |
| Cc1nc(-c2ccc(-c3ccccc3N(C)C)o2)[nH]c1-c1ccccc1 [Compound 71] | 1 | – | – |
| Cc1[nH]c(-c2coc(-c3ccccc3C(F)(F)F)c2)nc1-c1ccccc1 [Compound 72] | 2 | – | – |
| Cc1[nH]c(-c2cnn(-c3ccccc3)n2)nc1-c1ccccc1 [Compound 73] | – | 1 (compounds not causing a loss of viability at concentrations between 25 and 50 μM) | – |
| CCCc1[nH]c(-c2ccc(-c3ccccc3Cl)s2)nc1C [Compound 82] | – | – | 4 (MIC of 1 μg/ml or less for preventing streptococcal growth 100% (MIC100)) |
| Cc1nc(-c2ccc(-c3ccccc3OC(F)(F)F)o2)[nH]c1CC(C)C [Compound 93] | – | – | 4 (MIC of 1 μg/ml or less for preventing streptococcal growth 100% (MIC100)) |
| CCCc1nc(-c2ccc(-c3ccccc3N(C)C)o2)[nH]c1C [Compound 98] | – | – | 4 (MIC of 1 μg/ml or less for preventing streptococcal growth 100% (MIC100)) |
| CCCc1[nH]c(-c2ccc(-c3ccc(Cl)cc3Cl)o2)nc1C [Compound 109] | – | – | 4 (MIC of 1 μg/ml or less for preventing streptococcal growth 100% (MIC100)) |
| CCCc1nc(-c2coc(-c3ccccc3C(F)(F)F)c2)[nH]c1C [Compound 112] | – | – | 4 (MIC of 1 μg/ml or less for preventing streptococcal growth 100% (MIC100)) |
| CCCc1nc(-c2csc(-c3ccccc3C(F)(F)F)c2)[nH]c1C [Compound 113] | – | – | 4 (MIC of 1 μg/ml or less for preventing streptococcal growth 100% (MIC100)) |
| CCCc1nc(-c2cc(C)c(-c3ccccc3C(F)(F)F)s2)[nH]c1C [Compound 115] | – | – | 4 (MIC of 1 μg/ml or less for preventing streptococcal growth 100% (MIC100)) |
